Source: ChEMBL document CHEMBL4888484, “Replenishing the malaria drug discovery pipeline: Screening and hit evaluation of the MMV Hit Generation Library 1 (HGL1) against asexual blood stage Plasmodium falciparum ,using a nano luciferase reporter read-out” (2022)
Out of some 150,000 compounds screened, about 540 (0.36%) showed an effect of 50% or more. This is one part of the list.

tested on: Plasmodium falciparum; assay: Primary screen in NF54 nanoGlo assay, in single point, at 2uM, 72h; a lower Z score goes with more inhibition; type: functional, Erythrocyte; conditions: timepoint 72 hour

Row | Compound | % Inhibition | Z score
1 | CC(=O)N(C)CC(=O)NCCCCc1nc(-c2ccccn2)cs1 | -6% | 0.76
2 | CC(=O)N[C@@H]1C[C@H](Cc2ccccc2)O[C@H](c2ccc(-n3cncn3)cc2)C1 | -7% | 1.06
3 | CC(C)N(C)S(=O)(=O)N1CCO[C@@H](C)C1 | -12% | 1.57
4 | C[C@]1(CCCO)CCCN1S(=O)(=O)c1c[nH]c(C(=O)N2CCCC2)c1 | -10% | 1.15
5 | CC1CN(CCCNC(=O)c2ccoc2C2(O)CCOCC2)CC(C)O1 (stereo unspecified) | -9% | 0.83
6 | Cn1cc(-c2noc(C3(c4ccccc4F)CC3)n2)cn1 | -2% | 0.32
7 | COCCN(CC1CCN(Cc2ccccc2F)CC1)C(=O)CCn1cnnn1 | -1% | 0.14
8 | Cc1ccc(-c2nnc([C@H]3CN(C(=O)CC(C)(C)C)CC34CCOCC4)o2)cc1 | -6% | 1.18
9 | CCc1nnc(N2CCC[C@H](CNS(=O)(=O)Cc3ccccc3)C2)s1 | -14% | 2.62
10 | CC1CC(C(=O)NCCCn2cn[nH]c2=O)CC(C)(C)C1 (stereo unspecified) | 0% | 0.05
11 | COc1ccc(CNC[C@]2(COc3ccc(S(C)(=O)=O)cc3)C[C@@H](O)[C@@H](O)C2)cc1 | -6% | 0.96
12 | CC(C)(Oc1ccc(Cl)cc1)C(=O)N1CCN(c2cc(-n3cncn3)ncn2)CC1 | -14% | 2.1
13 | O=C(NCCn1ccnn1)Nc1c(F)cccc1Oc1ccccc1 | -7% | 0.94
14 | COc1ccc(-n2nnnc2C2(Nc3ccc4c(c3)OCO4)CCCC2)cc1 | -17% | 2.61
15 | c1ccc2c(C(c3ccc4c(c3)OCO4)c3c[nH]c4ccccc34)c[nH]c2c1 | -13% | 2.16
16 | O=C(CCn1cccn1)N[C@H]1CC(=O)N(CC2CCCCC2)C1 | 11% | -2
17 | COCCN(CC(=O)Nc1nc(-c2ccccc2)cn1-c1ccc(OC)c(OC)c1)C(=O)c1ccc(C)cc1 | -18% | 2.63
18 | Cn1c(=O)c(C(=O)NCc2cccc(Cl)c2)nc2cccnc21 | -1% | 0.12
19 | O=C(Nc1ccccc1)C1CCN(c2cc(-c3cccc(F)c3)ncn2)CC1 | -1% | 0.16
20 | Cc1cc(=O)n(CC(=O)N2CCc3ccccc32)c(Nc2cccc(F)c2)n1 | 11% | -1.42
21 | CCC1(CC)CN(Cc2ccc(O)c(OC)c2)CC[S@@+]1[O-] | 3% | -0.35

Row | Compound | % Inhibition | Z score
22 | O=C(NCc1ccccc1)[C@@H]1COC2(CCN(C(=O)Cc3cccs3)CC2)N1C(=O)c1ccc(F)cc1 | -7% | 0.84
23 | c1ccc(-n2ncc3c(NCc4cccnc4)nnnc32)cc1 | -7% | 1.09
24 | Cc1cccc(Cn2nc(C)nc2COCC(F)(F)C(F)F)c1 | -6% | 1.15
25 | COc1cccc(NC(=O)[C@H](Cc2ccccc2)NS(=O)(=O)c2ccc3c(c2)c(=O)n(C)c(=O)n3C)c1 | -3% | 0.41
26 | c1ccc(-c2nnc([C@H]3CCN(Cc4c[nH]c5ccccc45)C3)o2)cc1 | -12% | 1.8
27 | Cc1cc(C)n(-c2nc3c(c(=O)n2CC(=O)NC2CCCCC2)CCCC3)n1 | -10% | 1.77
28 | CC(C)(C)c1cnc(CN2CCC(N3CCCNC3=O)CC2)s1 | -11% | 1.13
29 | COCCN1CCC(CN(C[C@H]2CCCO2)C(=O)c2cnn(Cc3ccccc3)c2)CC1 | -25% | 2.31
30 | C[C@@H](CN(C)C(=O)OC(C)(C)C)c1noc(-c2cc(C#N)c[nH]2)n1 | -4% | 0.57
31 | N#Cc1c[nH]c(C(=O)NC2c3ccccc3CCC2n2ccnc2)c1 (stereo unspecified) | -1% | 0.11
32 | COC[C@H]1COCCN1C(=O)Nc1cnc(Oc2ccccc2)nc1 | -12% | 2.28
33 | C[C@H](NC(=O)[C@H]1CC[C@H](CNS(=O)(=O)c2ccc(Cl)cc2)CC1)C(=O)NCCN(C)C | -12% | 1.28
34 | Cc1nnc(C(C)N2CCCC(c3ncc[nH]3)C2)s1 (stereo unspecified) | -4% | 0.62
35 | Cc1c(N)cccc1N1CCCNC1=O | -13% | 1.55
36 | COc1ccc(S(=O)(=O)CCN)cc1 | -5% | 0.68
37 | CCOC1CC(NC(=O)Cn2cnnn2)C12CCCC2 (stereo unspecified) | 2% | -0.36
38 | Cn1cc([C@@H]2CCCCN2C(=O)c2cnns2)cn1 | -5% | 0.58
39 | O=C(Cc1ccc2[nH]c(=O)[nH]c2c1)N1CC[C@H]1C(F)(F)F | -2% | 0.4
40 | COc1ccc(C(=O)N[C@H](C(=O)NCC(C)C)C2CCN(C(=O)c3cccc(F)c3)CC2)cc1 | 1% | -0.13
41 | CCc1nc([C@@H]2CCCN2Cc2ncc(C(C)C)o2)no1 | -2% | 0.18
42 | Cc1ccc(S(=O)(=O)NCc2nc(N(C)C)no2)cc1 | -5% | 0.83

Row | Compound | % Inhibition | Z score
43 | Cc1cccc(C(=O)N(Cc2ccc(C#N)cc2)c2nc3[nH]c(C)c(Cc4ccccc4)c(=O)n3n2)c1 | 8% | -1.03
44 | CC(=O)N1CCN(c2cc(N(C)C)nc(C)n2)CC1 | -16% | 1.8
45 | O=C(Cc1ccnc(O)c1Br)NCCC1=CCCCCC1 | 10% | -1.26
46 | Fc1ccc(CN2CCN3CCOC[C@@H]3C2)cc1Cl | -1% | 0.08
47 | CCCn1nc(C)c(Cn2cnc(-c3ccccc3)c2[C@H]2CCOC2)c1C | -9% | 0.92
48 | C[C@@H]1CN(C2CCN(C(=O)c3cnn4ccccc34)CC2)C[C@H](C)O1 | -17% | 1.84
49 | CN(C(=O)c1ccc(Br)c(Cl)c1)c1cccnc1 | -8% | 0.9
50 | COc1ccc2cc(C(=O)NCCCc3nnc(N)s3)n(C)c2c1 | -7% | 0.9
51 | Nc1nc(Cn2cccc(C(F)(F)F)c2=O)nc(Nc2ccccc2)n1 | -3% | 0.25
52 | CS(=O)(=O)N1CCC(C(=O)NC2(c3cccs3)CCOCC2)CC1 | 8% | -1.15
53 | Cc1ccc(OCCNC(=O)NCC(C)C)c(C)c1 | -11% | 1.34
54 | Cc1cc2c(cc1C)O[C@H](C(=O)NCc1cnc(N3CCOCC3)c(F)c1)C2 | 10% | -1.04
55 | c1ccc2sc(N[C@H]3CCOC4(CCOCC4)C3)nc2c1 | -16% | 1.83
56 | Cc1noc(C)c1S(=O)(=O)N[C@H]1CCOc2ccccc21 | 29% | -3.83
57 | CC(C)Cc1cc(C(=O)N2CCC3(CC2)c2ccccc2C[C@@H]3O)no1 | 4% | -0.71
58 | Nc1nccnc1C(=O)OCC(=O)NC1CCCCCC1 | -7% | 1.42
59 | CCN(CC)c1nc(N)cc(-c2cc(N)nc3[nH]ccc23)n1 | -2% | 0.45
60 | Cc1noc(NC(=O)c2nn(C)c(=O)c3ccccc23)n1 | -5% | 0.79
61 | Cc1cc(C(=O)N2CCC[C@H](Cn3cnc4ccccc43)C2)ns1 | 10% | -1.11
62 | CCOc1ccc(-c2cc3nc(C4CCN(C(=O)OC(C)(C)C)CC4)c(C(=O)O)cn3n2)cc1 | 21% | -3.19
63 | CN1CCN(C(=O)c2cccn2C)CC1=O | 21% | -2.48

Row | Compound | % Inhibition | Z score
64 | C[C@H](NC(=O)C1CCN(S(C)(=O)=O)CC1)c1ccc(N2CCCC2)cc1 | -12% | 1.61
65 | Cc1ccc(C(=O)N2CC[C@H](Cc3nnc(C4CCOCC4)o3)C2)s1 | -18% | 2.36
66 | COc1cc(CNCCc2nncn2C)cc(Br)c1OCc1ccccc1 | 0% | -0.02
67 | Cc1nc2c3ccccc3nc(N(C)[C@@H](C)c3ccccn3)n2n1 | -13% | 2.42
68 | Cc1noc(C)c1CN1C[C@H]2CC[C@@H](C1)N(C(=O)c1cccc(Cl)c1)C2 | -9% | 1.72
69 | Cc1cccc(NC(=O)CCC(=O)OCC(F)(F)F)c1C | 37% | -5.34
70 | CC(C)(C)NC(=O)N1C2CCC1CC(=C1CC1)C2 | -9% | 1.26
71 | COc1cccnc1-c1ccccc1CN1CCOCC1 | -5% | 0.97
72 | CCn1c(-c2cc(NC(=O)c3cc(C)cc(C)c3)[nH]n2)cc2ccccc21 | -14% | 1.71
73 | Cc1noc(C)c1CC(=O)N1CCC(Oc2cnc3ccccc3n2)CC1 | -14% | 2.71
74 | Clc1cccc2c1CCN(C1CCN(Cc3ccco3)CC1)C2 | -7% | 0.67
75 | CC(=O)Nc1nc2ccc(NC(=O)CN3C(=O)c4ccccc4C3=O)cc2s1 | -6% | 1.02
76 | COCCN1C[C@@H](CNC(=O)c2ccccc2-c2cccc(C)c2)CC1=O | -3% | 0.49
77 | Nc1cccc(Nc2nnc3c(=O)[nH]c(=O)[nH]c3n2)c1 | 28% | -3.14
78 | CN(C)C(=O)c1ccc(CN(C)[C@H](c2ccccc2)C(F)(F)F)[nH]1 | -14% | 1.99
79 | CC(=O)Nc1ccc(C)c(NC(=O)CCN(C)c2ccccc2)c1 | -6% | 1.13
80 | Cc1ccc(NC[C@H]2CCN(c3nn4cc(C)nc4s3)C2)nc1 | -9% | 1.39
81 | CCN(C[C@H]1CCCCO1)S(=O)(=O)c1c(C)cc(C)c2nonc12 | -9% | 1.58
82 | CCc1n[nH]c(NC(=O)[C@@H]2CC[C@H](C)O2)c1Br | 5% | -0.55
83 | CN(c1nc2c(c(N3CCCCC3)n1)CN(S(=O)(=O)c1cccc(Cl)c1)CC2)C1CCCCC1 | 4% | -0.39
